Measured values published in patent US20200339699A1 (Innovent, published 2020).

B1: ADI-34850 scFv-hFc (Fc fusion)
chain: EIVMTQSPATLSVSPGERATLSCRASQSVGSNLAWYQQKPGQAPRLLIYGASTRATGIPARFSGSGSGTEFTLTISSLQSEDFAVYYCQQSVNLPITFGGGTKVEIKGSTSGSGKPGSGEGSTKGEVQLVESGGGLVQPGRSLRLSCAASGFTFDDYAMHWVRQAPGKGLEWVSGISWSSGSIGYADSVKGRFTISRDNAKNSLYLQMNSLRAEDTAVYYCAKDSPRRDSFGSIAFDIWGQGTMVTVSSTTTPAPRPPTPAPTIASQPLSLRPEACRPAAGGAVHTRGLDFACD[human IgG1 Fc not printed]
B2: ADI-34846 scFv-hFc (Fc fusion)
chain: DIVLTQSPDSLAVSLGERATINCKSSQSVLYSSNNKNYLAWYQQKPGQPPKLLIYWASTRESGVPDRFSGSGSGTDFTLTISSLQAEDVAVYYCQQYSDLLTFGGGTKVEIKGSTSGSGKPGSGEGSTKGQVQLVQSGAEVKKPGSSVKVSCKASGGTFSNYAISWVRQAPGQGLEWMGGIIPIFGTANYAQKFQGRVTITADESTSTAYMELSSLKSEDTAVYYCARGSGYYSSWLFDIWGQGTMVTVSSTTTPAPRPPTPAPTIASQPLSLRPEACRPAAGGAVHTRGLDFACD[human IgG1 Fc not printed]
B3: ADI-34857 scFv-hFc (Fc fusion)
chain: DIQMTQSPSSLSASVGDRVTITCQASQDITNYLNWYQQKPGKAPKLLIYDASNLETGVPSRFSGSGSGTDFTFTISSLQPEDIATYYCQQAFDLITFGGGTKVEIKGSTSGSGKPGSGEGSTKGQVQLVQSGAEVKKPGSSVKVSCKASGGTFSNYAISWVRQAPGQGLEWMGGIIPIFGTANYAQKFQGRVTITADESTSTAYMELSSLRSEDTAVYYCARGRGYYSSWLFDIWGQGTMVTVSSTTTPAPRPPTPAPTIASQPLSLRPEACRPAAGGAVHTRGLDFACD[human IgG1 Fc not printed]
B4: ADI-34860 scFv-hFc (Fc fusion)
chain: DIQMTQSPSSLSASVGDRVTITCRASQSISSYLNWYQQKPGKAPKLLIYAASSLQSGVPSRFSGSGSGTDFTLTISSLQPEDFATYYCQQKYDLLTFGGGTKVEIKGSTSGSGKPGSGEGSTKGQLQLQESGPGLVKPSETLSLTCTVSGGSISSSSYYWGWIRQPPGKGLEWIGSISYSGSTYYNPSLKSRVTISVDTSKNQFSLKLSSVTAADTAVYYCARDRGDTILDVWGQGTMVTVSSTTTPAPRPPTPAPTIASQPLSLRPEACRPAAGGAVHTRGLDFACD[human IgG1 Fc not printed]
B5: ADI-34861 scFv-hFc (Fc fusion)
chain: B4 chain with S31R, D93F, L94D, L95I
B6: ADI-34859 scFv-hFc (Fc fusion)
chain: DIQMTQSPSSLSASVGDRVTITCRASQSINSYLNWYQQKPGKAPKLLIYAASSLQSGVPSRFSGSGSGTDFTLTISSLQPEDFATYYCQQKASAPITFGGGTKVEIKGSTSGSGKPGSGEGSTKGQLQLQESGPGLVKPSETLSLTCTVSGGSISSSSYYWGWIRQPPGKGLEWIGSISYSGSTYYNPSLKSRVTISVDTSKNQFSLKLSSVTAADTAVYYCARDRGDTILDVWGQGTMVTVSSTTTPAPRPPTPAPTIASQPLSLRPEACRPAAGGAVHTRGLDFACD[human IgG1 Fc not printed]
B7: ADI-34832 scFv-hFc (Fc fusion)
chain: DIQMTQSPSSVSASVGDRVTITCRASQGISSWLAWYQQKPGKAPKLLIYAASSLQSGVPSRFSGSGSGTDFTLTISSLQPEDFATYYCQQTLSLPITFGGGTKVEIKGSTSGSGKPGSGEGSTKGQITLKESGPTLVKPTQTLTLTCTFSGFSLSTSGVGVGWIRQPPGKALEWLALIYWNDEKRYSPSLKSRLTITKDTSKNQVVLTMTNMDPVDTAVYYCARDPGEQLQVFDYWGQGTLVTVSSTTTPAPRPPTPAPTIASQPLSLRPEACRPAAGGAVHTRGLDFACD[human IgG1 Fc not printed]
notes: also called ADI-34832 scFv-hc

How the values were obtained:
[1] = target: T1, human BCMA on NCI-H929 cells (human, UniProt Q02223 1-184); experiment: flow cytometry on NCI-H929 cells, scFv-hFc
T1 construct: BCMA-positive human multiple myeloma cell line NCI-H929 (ATCC CRL-9068); also called B-cell maturation antigen; CD269
T1 sequence: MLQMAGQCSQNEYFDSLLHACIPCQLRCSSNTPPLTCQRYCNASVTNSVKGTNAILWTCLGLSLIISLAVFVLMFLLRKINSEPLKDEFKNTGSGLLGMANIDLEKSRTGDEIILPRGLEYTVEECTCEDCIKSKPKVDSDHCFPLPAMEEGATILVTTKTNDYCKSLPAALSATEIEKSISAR
Description: 1. A human NCI-H929 (ATCC, CRL-9068) cell suspension was taken, adjusted to a cell density of 2×10⁶ cells/mL, and added to a 96-well microplate at 100 μL/well. The cell suspension was centrifuged at 400 G for 5 min and the supernatant was removed. […] 2. […] 3. […] The plate was incubated at 4° C. for 30 min (in the dark). […] 4. Then the resulting solution was centrifuged at 400 G for 5min, and washed twice with PBS, and the cells were resuspended with 100 μL of PBS per well. Flow cytometry was performed on an Accuri C6 system (BD Bioscience) to detect PE positive signals, and MFI was calculated based on C6 software. The EC50 values were calculated using GraphPad software.

[2] = target: T2, human BCMA-His (human, UniProt Q02223 1-54); experiment: BLI (ForteBio Octet Red96), scFv-hFc on AHC sensors, human BCMA-His in solution
T2 construct: Bought antigen (ACRO BIOSYSTEMS, BCA-H522Y); probably only the extracellular domain stood in the assay; also called hBCMA-His; monovalent human BCMA; not shown: His tag
T2 sequence: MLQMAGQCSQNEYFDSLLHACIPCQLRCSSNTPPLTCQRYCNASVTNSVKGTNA
Description: The kinetic constants of the antibody molecules were determined based on the biofilm layer interferometry (BLI) of a fiber optic biosensor.
The Fortebio instrument model used in the experiment was Octet Red96, and a ForteBio affinity assay was performed according to the existing method (Estep, P et al., High throughput solution Based measurement of antibody-antigen affinity and epitope binning MAbs, 2013.5 (2): p. 270-8). The assay is specifically as follows: [0317] 1. Half an hour before the experiment, an appropriate number of AHC sensors were taken according to the number of samples and soaked in the SD buffer (50 mL PBS+0.1% BSA +0.05% Tween-20). [0318] 2. SD buffer, scFv-hFc antibodies and human BCMA-His antigens (ACRO BIOSYSTEMS, BCA-H522Y), each of 100 μL were added to a 96-well half-area black polystyrene microplate respectively. [0319] 3. The plates were arranged according to the positions of the samples, the positions of the sensors were selected, and the operation procedures were set as: Baseline, Loading ˜1 nm, Baseline, Association, and Dissociation, each running for a time depending on the binding and dissociation rates of the sample, at a rotation speed of 1,000 rpm and a temperature of 30° C. [0320] 4.

| Binder | EC50 [1] [nM] | Kd [2] [nM] | koff [2] [s⁻¹] | kon [2] [M⁻¹ s⁻¹] |
| --- | --- | --- | --- | --- |
| B1 | 28.7 | 33.1 | 0.00911 | 275000 |
| B2 | 816 | 11.4 | 0.00146 | 128000 |
| B3 | 17.7 | 6.44 | 0.00469 | 729000 |
| B4 | 37.3 | 8.68 | 0.00147 | 169000 |
| B5 | 27.4 | 22.7 | 0.00331 | 146000 |
| B6 | 34.6 | 39.5 | 0.00788 | 200000 |
| B7 | 11.2 | 70.7 | 0.0131 | 186000 |

Where a chain is given by its changes, count along the chain named.
